These results are taken from patent publication US20250163048A1 (Tango Therapeutics, Inc., priority 2022, published 2025).

The subject of assay [1] is HAP1 MTAP-deleted cell line. The assay can be described thus: SDMA in-cell western assay, HAP1 MTAP-deleted. To be noted: for pIC50 / IC90: Homo sapiens; for Hap1 MTAP intact/deleted ratio: IC50 ratio between HAP1 MTAP-intact and HAP1 MTAP-deleted cell line, SDMA in-cell western.
The subject of another assay is MTAP-deleted cell line. In words: viability assay for the MTAP-deleted cell line. It is filed as cell-based. The conditions noted are these: Homo sapiens, HAP1, viability assay.
Assay [2] relates to HAP1 MTAP-intact cell line. In words: SDMA in-cell western assay, HAP1 MTAP-intact. The conditions noted are these: Homo sapiens, HAP1, read-out: Hap1 MTAP intact IC50, SDMA in-cell western, HAP1 MTAP-intact cell line.

For orientation: pIC50 means the negative decadic logarithm of the IC50, by convention in mol/L. A word on the IC90: it is the point of the concentration-response curve where the effect stands at 90%.

pIC50: −log10 of the molar value. Where two headings read alike, the source gives them in different places. Bounds are passed on as bounds.

For the compound `C[C@H]1CC[C@H](c2ccc3sc(C4(C)CCN(C)CC4)nc3c2)N(C(=O)C(=O)Nc2cncc3cn[nH]c23)C1` [Compound 132, 2-((2R,5S)-2-(2-(1,4-dimethylpiperidin-4-yl)benzo[d]thiazol-5-yl)-5-methylpiperidin-1-yl)-2-oxo-N-(1H-pyrazolo[4,3-c]pyridin-7-yl)acetamide], the pIC50 was more than 8.30 in assay [1] (HAP1, read-out: Hap1 MTAP deleted IC50) and more than 7.00 in the assay with MTAP-deleted cell line. Also, in assay [1] (HAP1, read-out: Hap1 MTAP deleted IC90), the IC90 is less than 75 nM. For the same compound, the “Hap1 MTAP intact/deleted ratio” value in assay [1] is recorded as “B (“B” indicates an IC50 ratio greater than or equal to 15 fold but lower than 30 fold)”.

Regarding `C[C@H]1CC[C@H](c2ccc(C#N)cc2)N(C(=O)C(=O)Nc2cnc(N)c3cn[nH]c23)C1` [Compound 137, N-(4-amino-1H-pyrazolo[4,3-c]pyridin-7-yl)-2-((2R,5S)-2-(4-cyanophenyl)-5-methylpiperidin-1-yl)-2-oxoacetamide], the negative logarithm of the IC50 (pIC50) in assay [1] (HAP1, read-out: Hap1 MTAP deleted IC50, SDMA in-cell western, HAP1 MTAP-deleted cell line) is more than 8.30; in assay [2], 7.30 to 8.30. For the same compound, the IC90 in assay [1] (HAP1, read-out: Hap1 MTAP deleted IC90, SDMA in-cell western, HAP1 MTAP-deleted cell line) is less than 75 nM. In addition, in assay [1], the “Hap1 MTAP intact/deleted ratio” value is reported as “A (“A” indicates an IC50 ratio greater than or equal to 30 fold)”.
